Experimental data reported in patent US8247220B2, “Optical indicator for detecting bacterial pathogens” (Kimberly-Clark Worldwide, Inc., priority 2008, dated 2012).

Test system: gram-negative bacteria
Test: Visible colour change of Reichardt's dye-coated absorbent substrate, serial dilutions of bacteria
Settings: 100 μl aliquot on dye-coated substrate, colour change visible to the eye

## [O-]c1c(-c2ccccc2)cc(-[n+]2c(-c3ccccc3)cc(-c3ccccc3)cc2-c2ccccc2)cc1-c1ccccc1 [Reichardt's dye, 4-(2,4,6-triphenylpyridinium-1-yl)-2,6-diphenylphenolate]
  lower limit for indication of gram-negative bacteria: 1000 CFU/ml
